For 91 molecules, survival results are on record in PubChem BioAssay AID463173 (ICCB-Longwood Screening Facility, Harvard Medical School, 2010).

Screen size: about 52,000 compounds; about 4,300 (8.3%) were called active. Cut-off read from the data, not from the text of the source: active = survival mostly below about 52% (no sharp cut-off); inactive = mostly above about 56%. Some of the results follow.

In the assay the test system is DeltatarO mutant. Kind of assay: growth inhibition of S. aureus wild type versus tarO mutant, primary screen, teichoic acid synthesis inhibitors, RN4220, OD600 (AID 463173). Conditions: OD600, 18 h, hits give low values, screened at 18.75 µg/mL (by protocol).
With `COc1ccc(Nc2nc(-c3ccc(C)cc3)nc3ccccc23)c(OC)c1`, the survival was inactive: 75%.

With `CCCCCn1c(C(C)NC(=O)c2ccccc2)nc2ccccc21` (stereo unspecified), the survival was inactive: 81%. As to `O=C(c1c(F)cccc1F)N1CCCC(c2nc(-c3cccs3)no2)C1` (stereo unspecified), the survival was inactive: 88%. Regarding `COc1ccc2c(c1)c1c(c(=O)n(Cc3ccccc3)c(=O)n1CC(=O)NCc1ccccc1Cl)n2C`, the survival is inactive: 72%. For the molecule `CCc1nn(CC(=O)NCCc2ccc(OC)cc2OC)c(=O)c2cc3c(OC)cccc3n12`, the survival is inactive: 73%. In the case of `COc1ccc2c(CNCc3cccs3)c(C(=O)O)n(Cc3ccccc3)c2c1`, the survival is inactive: 83%. Turning to `Cc1c(CCNC(=O)c2ccc(Br)o2)sc2nc(-c3ccc(F)cc3)nn12`, the survival was inactive: 83%. Take `COc1ccc(NC(=O)Cn2c(SCc3cc(C)ccc3C)nc3ccncc32)c(OC)c1OC`: the survival was inactive: 61%. As for `CCOc1ccccc1NC(=O)Cn1cc(C(=O)c2cccc(OC)c2)c(=O)c2ccc(C)nc21`, the survival was inactive: 77%. Turning to `CCOc1ccccc1C(=O)Nc1ccc(S(=O)(=O)Nc2nc(C)cc(C)n2)cc1`, the survival is inactive: 83%. On to `CCc1cccc(NC(=O)CSC2=Nc3ccccc3N=C(c3ccc(F)cc3)C2)c1`, for which the survival is inactive: 119%. In the case of `COc1cc(NC(=O)CN(c2ccc(C)cc2)S(=O)(=O)c2cccc3nonc23)cc(OC)c1`, the survival was inactive: 52%. As for `CCN1CCN(c2nc3c(S(=O)(=O)c4ccc(Br)cc4)nnn3c3ccsc23)CC1`, the figure is inactive: 106%; as for `O=C(CSc1nnc(CNC(=O)c2cccc(F)c2)n1-c1ccccc1)Nc1ccccc1F`, inactive: 70%; as for `Cc1ccc(NC(=O)Cn2cnc3sc(C(=O)O)c(C)c3c2=O)cc1Cl`, inactive: 70%. For the molecule `COC(=O)CNc1nc(C2CC2)nc2c1nnn2Cc1ccccc1Cl`, the survival was inactive: 112%. The same measure for `COc1cc(Cl)c(NC(=O)CCS(=O)(=O)c2cc3c(cc2Cl)NC(=O)CO3)c(OC)c1`: inactive: 83%. The same measure for `COc1ccc(OC)c2sc(N3CCN(C(=O)C(C)(C)C)CC3)nc12`: inactive: 89%.

Consider `COc1cc(-c2cc(OC)c3c(C)oc(C)c3c(=O)c2)ccc1OC(=O)c1ccccc1Cl`, for which the survival is inactive: 93%. Take `Cc1ccc(-c2cc3ncc4c(n3n2)-c2cc(C)ccc2OC4)cc1`: the survival was inactive: 68%. As for `O=C(O)CSCC(=O)Nc1cccc2ccccc12`, the figure is inactive: 78%. Regarding `CC(=O)Nc1ccc(S(=O)(=O)Nn2cnnc2)cc1`, the survival is inactive: 88%. The same measure for `CCOC(=O)C1=C(CN2CCC(C)CC2)NC(=O)NC1c1ccc(F)cc1` (stereo unspecified): inactive: 73%; for `Cc1ccc2nc(N3CCN(c4cccc(Cl)c4)CC3)c(-n3nc(C)cc3C)nc2c1`: active: 0%; for `COc1ccc(CCn2cc3c(c2-c2ccc(Br)cc2)c(=O)n(C)c(=O)n3C)cc1OC`: inactive: 53%.

On to `Cc1ccc(C(C)C)c(OCC(=O)NCC2(N(C)C)CCCCC2)c1`, for which the survival is inactive: 95%. As to `Cc1ccccc1C(=O)n1nc(-c2ccco2)nc1NCc1ccc(Cl)cc1`, the survival was inactive: 80%. Consider `Cc1ccccc1N1CC(c2nc3ccccc3n2CCC2CCCCC2)CC1=O` (stereo unspecified), for which the survival was active: 16%. `O=C(NC1CCN(Cc2nnnn2Cc2ccc3c(c2)OCO3)CC1)c1ccccc1F`: the survival is inactive: 91%.

On to `COc1ccc(-c2nc(C)c(CCNC(=O)C(=O)Nc3ccccc3OC)s2)cc1`, for which the survival is inactive: 89%. Turning to `O=C(NCCc1ccccc1Cl)c1ccc(Cn2c(=O)c3cccn3c3cccnc32)cc1`, the survival was inactive: 49%.

In the case of `O=C(COc1ccc(Cl)cc1)Nc1ccc(-c2nc3ccccc3s2)c(O)c1`, the survival was inactive: 68%. Regarding `Cc1ccc(-c2nnc(SCc3ccccc3C)o2)cc1`, the survival is active: -5%.

In the case of `CCc1ccccc1NC(=O)c1c(NC(=O)c2ccccc2)sc2c1CCCC2`, the survival is active: 42%. With `CCc1ccc(C(=O)c2cn(CC(=O)Nc3ccc4c(c3)OCO4)c3cc(OC)c(OC)cc3c2=O)cc1`, the survival was inactive: 101%. Take `CCOC(=O)C1CCC(CN(Cc2cccc(Br)c2)S(=O)(=O)c2ccc(C)cc2)CC1` (stereo unspecified): the survival is inactive: 122%. `COc1ccc(S(=O)(=O)Nc2ccc3c(c2)N(C(C)=O)CCC3)cc1F`: the survival is inactive: 85%.

In the case of `Cc1ccc(C)c(N2CCN(C(=O)C3CCCN(S(=O)(=O)c4ccc5c(c4)oc(=O)n5C)C3)CC2)c1` (stereo unspecified), the survival is inactive: 87%.

`CCc1nc2ccccc2n1CCCCOc1ccc(C)cc1`: the survival was active: 1%.

As to `CCC1CN(C(=O)N2CCC(C(=O)NCCN(CC)CC)CC2)c2cc(C)ccc2O1` (stereo unspecified), the survival was inactive: 94%.

With `CCOc1cc(CNC(=O)c2sc3ncnc(N(C)C4CCCCC4)c3c2C)ccc1OC`, the survival is inactive: 92%. `N#CCn1c(Cc2ccccc2)nc2ccccc2c1=O`: the survival was inactive: 99%. The same measure for `CC(=O)c1ccc(NC(=O)Cn2cc(S(=O)(=O)Cc3cccc(Cl)c3)c3ccccc32)cc1`: inactive: 113%. As for `COc1ccccc1CNC(=O)C1CCC(CNS(=O)(=O)c2ccc3c(c2)CCCC(=O)N3)CC1` (stereo unspecified), the survival is inactive: 76%. The same measure for `COCCCNC(=O)c1ccc(NC(=O)c2nsc3ccccc23)cc1`: inactive: 83%; for `Cc1ccc(N2C(=O)CSC23C(=O)N(CC(=O)NCc2ccccc2)c2ccccc23)cc1C` (stereo unspecified): inactive: 71%; for `Cc1cccc(C)c1OCC(=O)NCC1(N(C)C)CCCCC1`: inactive: 86%. Take `CNC(=O)c1c(NC(=O)c2ccc(S(=O)(=O)N3CCC(C)CC3)cc2)sc2c1CCC2`: the survival was inactive: 131%. For the molecule `COc1ccc(CNS(=O)(=O)c2cnc(N)nc2)c(OC)c1`, the survival was inactive: 83%. As for `CCN(CC)CCNC(=O)c1ccc(Cn2c(SCc3ccccc3)nc3cccnc32)cc1`, the figure is inactive: 69%.

On to `Cc1ccc2c(Sc3ccc(Cl)cc3)c(C(=O)N3CCC(C)CC3)[nH]c2c1`, for which the survival is inactive: 69%. The same measure for `O=C(Nc1ccc2c(c1)oc1ccccc12)C1CC1`: inactive: 99%; for `O=c1c2oc3ccccc3c2n(Cc2ccccc2F)c(=O)n1Cc1ccccc1`: active: 46%. As to `Cc1ccc2onc(CC(=O)Nc3ccc(C(C)C)cc3)c2c1`, the survival is active: 46%.

For the molecule `Cc1ccc2c(c1)N(CCC(=O)NCc1ccccc1Cl)C(=O)CO2`, the survival is active: 40%. Consider `COc1cccc(CNC(=O)c2cc3c(=O)oc4ccc(C)cc4c3s2)c1`, for which the survival is inactive: 73%.

In the case of `CC(=O)C1=C(c2ccc(Cl)cc2)N(C(C)=O)n2c(nnc2C2CCCCC2)S1`, the survival was inactive: 88%. On to `O=C(O)C1CC(=O)N(CCCN2CCOCC2)C1` (stereo unspecified), for which the survival was inactive: 96%. With `CC(C)(C)c1ccc(Cn2c(=N)n(CC(O)c3ccco3)c3ccccc32)cc1` (stereo unspecified), the survival was active: 5%. Take `Cc1ccc(Cl)cc1N(C)C(=O)c1cn(C2CCCCC2)c(=O)c2c1c1ccccc1n2C`: the survival is inactive: 103%. The same measure for `Cc1ccc(N(CC(=O)Nc2cccc(Cl)c2)S(=O)(=O)c2cccs2)cc1`: inactive: 103%. As for `CCN(Cc1ccccc1)S(=O)(=O)c1ccc2c(c1)CC(C)N2C(=O)C1CCC1` (stereo unspecified), the figure is inactive: 95%; as for `Cc1cc(NC(=O)Nc2nnc(N(C)Cc3ccccc3)s2)ccc1Br`, inactive: 68%. Consider `Cn1cc(S(=O)(=O)N2CCOCC2)cc1C(=O)Nc1ccc(Cl)c(C(F)(F)F)c1`, for which the survival was inactive: 67%. Consider `CCOc1ccccc1NC(=O)Cc1noc2ccc(C)cc12`, for which the survival was inactive: 48%. Regarding `COc1cc(NC(=O)c2cn(C3CCCC3)c(=O)c3c2c2ccccc2n3C)cc(OC)c1OC`, the survival was inactive: 87%. Consider `Cn1cnc2c(=O)oc3ccc(S(=O)(=O)Nc4ccc(F)cc4)cc3c21`, for which the survival was inactive: 81%.

Consider `COc1ccc(-c2nnc(SCc3cccc(Cl)c3)o2)cc1`, for which the survival was active: 22%. Take `CC(=O)N1CCC(N(Cc2ccc(C)o2)C(=O)Nc2ccc(C)cc2)CC1`: the survival is inactive: 96%. As to `CCOc1ccc(OCC)c(NS(=O)(=O)c2ccc(-c3coc(C)n3)cc2)c1`, the survival is inactive: 78%. `COc1ccc(NC(=O)c2c(NC(=O)c3ccc(Br)cc3)sc3c2CCCC3)cc1`: the survival was inactive: 169%. As for `Cn1c(=O)[nH]c(=O)c2c1nc(NCCc1ccccc1)n2Cc1ccc(F)cc1`, the figure is inactive: 68%. As for `Cc1nc2ccc(S(=O)(=O)N(C)CC(=O)Nc3cccc(C(F)(F)F)c3)cc2s1`, the survival is inactive: 94%. As for `CCOC(=O)c1cc(S(=O)(=O)N2CCN(c3ccccc3F)CC2)[nH]n1`, the survival is active: -5%. Take `CCOc1ccc(CNS(=O)(=O)c2ccc(-c3coc(C)n3)cc2)cc1`: the survival was inactive: 115%.

On to `COc1ccc(N2CCN(CCCNC(=O)Cn3c(-c4cccs4)cc4ccccc43)CC2)cc1`, for which the survival was inactive: 68%. On to `COc1ccc2nc(N(Cc3cccnc3)C(=O)C3CCCCC3)sc2c1`, for which the survival was inactive: 94%. With `COc1cccc(C2C(C(=O)Nc3ccc(C)cc3C)=C(C)Nc3nc4ccccc4n32)c1OC` (stereo unspecified), the survival is inactive: 81%. As for `CCN(CC)S(=O)(=O)N1CCN(S(=O)(=O)N2CCOCC2)CC1`, the survival was inactive: 103%.

On to `Fc1ccc2c(c1)-c1nc(-c3ccccc3)cc(-c3ccccc3)c1CO2`, for which the survival was inactive: 67%. With `C=CCN1C(=O)C2C(C(=O)NCc3ccccc3)C3C=CC2(O3)C1C(=O)NC(C)(C)C` (stereo unspecified), the survival is inactive: 65%.

For the molecule `Cn1c(=O)n(C)c2cc(/C=C(\C#N)C(N)=C(C#N)C#N)ccc21`, the survival is inactive: 118%. For the molecule `COc1ccc(N(C(=O)c2cccc(C)c2)S(=O)(=O)c2ccc(Cl)cc2)cc1`, the survival is inactive: 68%.

As to `CC(C)CCNC(=O)c1cnc2sc(N3CCCCC3)nn2c1=O`, the survival is inactive: 83%. `CC(NC(=O)C1CCN(c2nc3ccccc3nc2C(F)(F)F)CC1)c1ccccc1` (stereo unspecified): the survival is active: 37%. As to `CCCCN(CC)CCCNC(=O)Nc1sc2nc3n(c(=O)c2c1C)CCC(C)CC3` (stereo unspecified), the survival was inactive: 132%. As for `CCCCNC(=O)c1cccc(-n2c(C)nc3cccnc32)c1`, the figure is inactive: 90%. For `CCCS(=O)(=O)N1CCCC(C(=O)NCCOC)C1` (stereo unspecified), the survival is inactive: 55%. The same measure for `COC(=O)c1cc2c(cc1N)OCCO2`: inactive: 88%; for `C=Cc1ccc(C=C)cc1`: inactive: 79%. On to `O=C(CN1C(=O)CCc2cc(S(=O)(=O)N3CCOCC3)ccc21)Nc1cccc(C(F)(F)F)c1`, for which the survival was inactive: 83%.
